In all, about 310,000 compounds went through this assay and about 2,200 (0.71%) showed an effect of 50% or more. The effect is printed as a negative number. The list shows a part of the results.
What follows are molecules tested against human ether-à-go-go-related gene (hERG) potassium channel (human, UniProt Q12809) (assay: primary screen, population patch clamp on CHO cells stably expressing hERG).
Chain of human ether-à-go-go-related gene (hERG) potassium channel (Q12809 whole entry, looked up): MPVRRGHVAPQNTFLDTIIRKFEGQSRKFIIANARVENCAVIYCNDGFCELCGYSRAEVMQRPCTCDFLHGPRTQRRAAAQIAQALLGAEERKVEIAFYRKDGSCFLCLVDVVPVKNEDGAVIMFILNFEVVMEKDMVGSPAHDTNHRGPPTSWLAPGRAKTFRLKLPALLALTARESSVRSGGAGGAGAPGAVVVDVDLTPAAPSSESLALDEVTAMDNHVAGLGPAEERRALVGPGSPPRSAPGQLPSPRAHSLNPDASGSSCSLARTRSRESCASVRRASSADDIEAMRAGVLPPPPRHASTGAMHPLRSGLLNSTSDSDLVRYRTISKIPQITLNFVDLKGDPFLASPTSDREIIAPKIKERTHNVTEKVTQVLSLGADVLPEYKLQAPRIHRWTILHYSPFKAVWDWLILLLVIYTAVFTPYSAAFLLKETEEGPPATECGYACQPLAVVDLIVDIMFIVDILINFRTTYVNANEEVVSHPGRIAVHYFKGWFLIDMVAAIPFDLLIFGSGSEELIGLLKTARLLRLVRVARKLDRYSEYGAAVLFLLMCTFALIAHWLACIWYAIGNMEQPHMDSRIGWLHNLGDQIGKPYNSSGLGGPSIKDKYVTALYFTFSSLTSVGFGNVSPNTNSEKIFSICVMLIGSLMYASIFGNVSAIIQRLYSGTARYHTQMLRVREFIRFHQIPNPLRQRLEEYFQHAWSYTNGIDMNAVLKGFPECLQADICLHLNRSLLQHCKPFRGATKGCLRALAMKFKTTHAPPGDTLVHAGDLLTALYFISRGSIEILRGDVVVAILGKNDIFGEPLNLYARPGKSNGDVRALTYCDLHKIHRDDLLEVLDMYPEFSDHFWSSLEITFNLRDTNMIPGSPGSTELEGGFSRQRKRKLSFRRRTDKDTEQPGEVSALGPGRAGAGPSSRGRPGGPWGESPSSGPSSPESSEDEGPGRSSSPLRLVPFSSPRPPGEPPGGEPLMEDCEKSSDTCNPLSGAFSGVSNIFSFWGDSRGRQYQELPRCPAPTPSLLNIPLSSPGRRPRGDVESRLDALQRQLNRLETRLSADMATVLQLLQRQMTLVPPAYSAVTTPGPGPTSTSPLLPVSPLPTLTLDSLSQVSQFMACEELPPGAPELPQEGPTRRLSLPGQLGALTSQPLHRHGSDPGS

SMILES	hERG current change (%, negative = inhibition) at 1uM
CC(C)(C)NC(=O)CSc1nnc(SCC(=O)NC(C)(C)C)s1	29.9%
OC1(c2ccccc2F)CCN(Cc2nnc(-c3ccccc3)o2)CC1	11%
Cc1cccc(C)c1NC(=O)Cn1nnc(C(=O)Nc2ccc(F)cc2F)c1N	14.4%
CC(C)CNC(=O)CN(C)S(=O)(=O)c1ccc(F)cc1	3.41%
CC(C)(C)N(Cc1ccccc1)C(=O)COC(=O)c1cccc([N+](=O)[O-])c1	4%
c1ccc(SCc2nc3ccccc3[nH]2)nc1	20.3%
O=C(Nc1ccccc1F)c1ccc(S(=O)(=O)N2CCCCCC2)cc1	12.7%
O=c1[nH]c(C2C3CC4CC(C3)CC2C4)nc2ccccc12 (centres unmarked)	6.8%
CC1CN(S(=O)(=O)c2cccc3nsnc23)CC(C)O1 (centres unmarked)	6.75%
O=C(NCc1ccccc1)C(c1ccc(F)cc1)N(Cc1ccc2c(c1)OCO2)C(=O)Cn1nnc(-c2cccs2)n1 (centres unmarked)	3.61%
O=C(OCc1nc2ccc(Cl)cc2n1CCO)c1ccc2c(c1)OCO2	7.96%
COc1ccc(N2CCN(Cc3nc(-c4ccccc4)no3)CC2)cc1	3%
CSc1nc2ccccc2n1C(=O)NC1CCCCC1	9.3%
CCN(Cc1nc2ccccc2n1C)c1ccccc1	2.77%
CCCC(=O)Nc1nn(CCC)c2nc3ccccc3cc12	1.8%
CCn1ncc(C2=NOC(C(=O)NCc3ccc(Cl)cc3)C2)c1C (centres unmarked)	-1.6%
COc1ccc(S(=O)(=O)N(C)CC(=O)NCCCN2CCOCC2)cc1Cl	7.42%
Clc1c(-c2ccccc2)nc2ccccn12	6.13%
COc1ccc(-c2noc(CNC(=O)Nc3ccc(F)cc3)n2)cc1	4.52%
O=C(c1cn(Cc2ccccc2)c2ccccc12)C1CC1	-6.68%
N#Cc1ccc(CSc2ncccn2)cc1	6.56%
Cc1ccc(SCCC(=O)N2CCN(S(=O)(=O)c3ccccc3)CC2)cc1	-0.0008%

SMILES	hERG current change (%, negative = inhibition) at 1uM
Cc1cccc(/C=N/NC(=O)c2ccncc2)n1	16.4%
Cc1ccc(O)c(-c2cc(C(=O)Nc3ccc(S(=O)(=O)N4CC(C)OC(C)C4)cc3)[nH]n2)c1 (centres unmarked)	9.38%
O=C1C(Cl)=CC(=Nc2ccc([O-])cc2)C=C1Cl.[Na+]	0.505%
CC1CN(C(=O)c2cc(S(=O)(=O)N3CCN(c4ccccc4)CC3)ccc2Cl)CC(C)O1 (centres unmarked)	-5.44%
CN(C)c1ccc(/C=[N+](\[O-])C2N(c3ccccc3)C(=S)SC2(C)C)cc1 (centres unmarked)	-6.26%
COC(=O)N/N=C(\CCC(=O)O)c1cccs1	13.2%
COc1ccccc1NC(=O)Cc1nnc(SCC(=O)Nc2nccs2)n1C	15.5%
O=C(N[C@@H](Cc1ccccc1)C(=O)O)c1cccs1	19.5%
N/C(=N\OC(=O)COc1ccc(Cl)cc1)c1ccc(Cl)cc1	12.8%
CCCc1c(O)nc(SC2CC(=O)N(c3ccc(OC)cc3)C2=O)[nH]c1=O.Cl (centres unmarked)	7.53%
CC(=O)c1cccc(CN2CCN(C3CCCC3)C(CCO)C2)c1 (centres unmarked)	-0.585%
CN(C)S(=O)(=O)N1CCC(Oc2ccc(C(=O)NC3Cc4ccccc4C3)cc2)CC1	13.4%
O=C1CC(SC2=NCCS2)C(=O)N1c1cccc(Cl)c1Cl (centres unmarked)	13.8%
O=C(COC(=O)Cn1cnc2ccccc21)Nc1cc2c(cc1Cl)C(=O)c1ccccc1C2=O	17.2%
CCC(C)N(NC(C)=O)c1nc(Cl)nc(NC(C)C)n1 (centres unmarked)	-8.28%
CCOc1ccccc1C=Nc1ccccc1C(=O)Nc1ccccc1	-3.74%
CNC(=S)NNC(=O)c1ccccc1Br	15.2%
COC(=O)c1sc(-c2ccc(C(C)(C)C)cc2)cc1NC(=O)c1ccccc1C(=O)O	3.25%
COc1cc(C2c3c(oc4ccccc4c3=O)C(=O)N2Cc2ccncc2)ccc1O (centres unmarked)	4.07%
Cc1ccc(/C=C2/Sc3ccccc3N(CC(=O)NCCCOC(C)C)C2=O)cc1	1.52%
COc1ccc(C(CC(=O)N2CCCC2)c2c(OC)cc(OC)c3ccc(=O)oc23)cc1 (centres unmarked)	8.69%
CCCc1cc(=O)oc2c(CN3CCOCC3)c(O)ccc12	6.31%
